{"source": "PubChem BioAssay AID894", "about": "(National Center for Advancing Translational Sciences (NCATS), 2007)", "note": "Screen size: about 150,000 compounds; about 6,500 (4.3%) were called active. Inconclusive results, whose numbers are uncertain, are shown with a selection of clear calls. The call rests on the fitted dose curve; in most records, active means well fitted inhibition curve with a large enough effect (not every such curve was filed as active); inconclusive means small, poorly fitted or top-dose-only effect, or another doubt; inactive means no such curve, though single readings can be large or run the other way. Potencies of inconclusive entries are left out as doubtful fits. On the % scale 0 is the no-effect control and ±100 the full control effect; potency means the concentration at half of the fitted maximal effect; tags describe the fitted curve by direction and shape."}
{"target": "15-hydroxyprostaglandin dehydrogenase [NAD(+)] (Homo sapiens) (UniProt P15428)", "sequence (P15428 whole entry, looked up)": "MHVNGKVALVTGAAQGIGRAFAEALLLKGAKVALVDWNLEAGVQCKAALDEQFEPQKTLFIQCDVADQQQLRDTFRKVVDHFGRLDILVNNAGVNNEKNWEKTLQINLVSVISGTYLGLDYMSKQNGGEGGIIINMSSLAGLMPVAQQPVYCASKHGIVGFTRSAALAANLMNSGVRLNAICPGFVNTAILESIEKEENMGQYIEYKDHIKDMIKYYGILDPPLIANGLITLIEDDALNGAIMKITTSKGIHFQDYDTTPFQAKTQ", "assay": "qHTS Assay for Inhibitors of HPGD (15-Hydroxyprostaglandin Dehydrogenase)", "conditions": "purified HPGD, NADH fluorescence kinetic, PGE2 substrate; activity change, negative = inhibition: stronger effect = lower value", "method_in_brief": "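20 nM HPGD preincubated 15 min at room temperature with compound in 50 mM Tris-HCl pH 8, 0.01% Tween 20. Started with 1 mM NAD+ and 30 uM prostaglandin E2; NADH fluorescence (360/450 nm) read 5 times over 30-s intervals, last minus first.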"}
{"smiles": "CS(=O)(=O)N(CC(=O)NCc1ccc2c(c1)OCO2)Cc1ccc(Cl)cc1", "activity change, negative = inhibition": "inactive: -4.88%"}
{"smiles": "CCc1ccc(C(=O)CSc2ncn[nH]2)cc1", "Potency": "inconclusive [inhibitor, single point]"}
{"smiles": "CC(=O)OC(C(=O)NC1CCCCC1)c1ccc(Cl)cc1", "note": "(stereo not given)", "activity change, negative = inhibition": "inactive: -5.94%"}
{"smiles": "COc1cc(/C=C/C(=O)Nc2ccc(C(C)=O)cc2)cc(OC)c1OC", "Potency": "inconclusive [inhibitor, partial curve]"}
{"smiles": "Cc1c(Cl)c([N+](=O)[O-])nn1CCCC(=O)Nc1sc2c(c1C#N)CCC2", "Potency": "inconclusive [inhibitor, partial curve]"}
{"smiles": "CCOc1cc(/C=C2\\N=C(SC)SC2=O)cc([N+](=O)[O-])c1OC(C)=O", "Potency": "active: 15.8 µM"}
{"smiles": "Cc1ccc(-c2cc(C(F)(F)F)n3nc(C(=O)NCCCn4ccnc4)cc3n2)cc1C", "Potency": "inconclusive [inhibitor, single point]"}
{"smiles": "Cc1nn(CC(=O)NCc2cc3ccccc3[nH]2)c(C)c1[N+](=O)[O-]", "activity change, negative = inhibition": "inactive: -5.98%"}
{"smiles": "COCCNC(=O)c1c(N)n(CCCn2ccnc2)c2nc3ccccc3nc12", "Potency": "inconclusive [inhibitor, partial curve]"}
{"smiles": "O=C(COc1ccc2c(-c3ccccc3)cc(=O)oc2c1)NCc1cccs1", "Potency": "inconclusive [inhibitor, full curve]"}
{"smiles": "O=C(Nc1ccccc1C(=O)Nc1ccccc1C(=O)NCc1ccco1)c1ccco1", "activity change, negative = inhibition": "inactive: -23.8%"}
{"smiles": "COc1ccc(Cc2nnc(SCC(=O)c3ccccc3)o2)cc1", "Potency": "inconclusive [inhibitor, partial curve]"}
{"smiles": "CCCCC(=O)NNC(=S)NC(=O)c1cccc([N+](=O)[O-])c1", "Potency": "active: 8.91 µM"}
{"smiles": "CS(=O)(=O)N1CC(C(=O)NC2CCCC2)Oc2ccc(Cl)cc21", "note": "(stereo not given)", "activity change, negative = inhibition": "inactive: -8.39%"}
{"smiles": "CCOc1c(Cl)cc(C(=O)Nc2ccccc2C(=O)O)cc1Cl", "Potency": "active: 14.1 µM"}
{"smiles": "COc1cc(CNn2cn[nH]c2=S)cc(Cl)c1OCc1ccccc1", "Potency": "inconclusive [inhibitor, partial curve]"}
{"smiles": "CCN(CC)S(=O)(=O)c1ccc2[nH]cc(C(=O)NCCN3CCCCC3C)c(=O)c2c1", "note": "(stereo not given)", "Potency": "inconclusive [inhibitor, single point]"}
{"smiles": "Cc1cccc(NC(=S)N=Nc2c(O)[nH]c3ccccc23)c1", "activity change, negative = inhibition": "inactive: -14.5%"}
{"smiles": "O=C(NCc1cccc(C(F)(F)F)c1)C1CC(c2c(Cl)cccc2Cl)=NO1", "note": "(stereo not given)", "Potency": "inconclusive [inhibitor, partial curve]"}
{"smiles": "O=C(Oc1ccccc1C(=S)N1CCCCC1)c1cc([N+](=O)[O-])cc([N+](=O)[O-])c1", "Potency": "active: 14.1 µM"}
